Assay results published in ChEMBL document CHEMBL4888484, “Replenishing the malaria drug discovery pipeline: Screening and hit evaluation of the MMV Hit Generation Library 1 (HGL1) against asexual blood stage Plasmodium falciparum ,using a nano luciferase reporter read-out” (2022).
Hit rate of the full screen: of about 150,000 compounds, about 540 (0.36%) showed an effect of 50% or more. The list shows a part of the results.

These molecules were tested on Plasmodium falciparum (assay: Primary screen in NF54 nanoGlo assay, in single point, at 2uM, 72h; a lower Z score goes with more inhibition). Settings: timepoint 72 hour.
Format: functional, Erythrocyte
With `CC(C)(C)N(CCS(C)(=O)=O)C(=O)c1cccc(F)c1Cl` the “% Inhibition” value was 4% and the Z score was -0.35.
In the case of `O=C(Nc1ccc(Cl)cc1Cl)c1cc(O)n(-c2ccc(Cl)cc2)c(=O)n1`, the “% Inhibition” value is reported as -7% and the Z score is reported as 0.79.
With `Cc1ccc([C@H](C)NC2CCN(Cc3ccco3)CC2)cn1` the “% Inhibition” value was -17% and the Z score was 1.55.
`CC(C)(CN1CCCC1)CN1CCC[C@](C)(C#N)C1` was tested, and the “% Inhibition” value was -2% and the Z score was 0.2.
With `CS(=O)(=O)N(CC(=O)NCCc1ccccc1)C1CCCCC1` the “% Inhibition” value was -7% and the Z score was 1.37.
In the case of `C[C@](O)(CCNC(=O)NCC1CCOCC1)c1ccccc1`, the “% Inhibition” value is reported as -5% and the Z score is reported as 0.71.
In the case of `COc1cc(C(=O)N2CCOC[C@@H](O)C2)ccn1`, the “% Inhibition” value is reported as -15% and the Z score is reported as 3.07.
In the case of `CCC(=O)NCc1nc2c(n1CC)CN(C(=O)c1ccc(C)s1)CC2`, the “% Inhibition” value is reported as 2% and the Z score is reported as -0.26.
For `COc1ccc(CN2CCOCCNC(=O)CC2)cc1Cc1c(C)noc1C`, the “% Inhibition” value was 5% and the Z score was -0.67.
`COCc1ccc(NC(=O)N2CCC[C@H](c3nc4c(s3)CCCC4)C2)cc1` was tested, and the “% Inhibition” value was 2% and the Z score was -0.19.
With `Cc1ccc(NC(=O)c2cn(-c3cc(-c4noc(C)n4)ccc3C)nc2C)c(Br)c1` the “% Inhibition” value was 7% and the Z score was -1.26.
`CN(CCN(C)C1CCCC1)Cc1ccc(N(C)C)nc1` was tested, and the “% Inhibition” value was -9% and the Z score was 1.54.
For `O=C(CCCc1nc(C2CC2)no1)N1CCCCCc2ccccc21`, the “% Inhibition” value was -14% and the Z score was 1.52.
`O=C(O)C1(Oc2ccc3c(c2)CCC3)CCN(c2ncc(F)cn2)CC1` was tested, and the “% Inhibition” value was 1% and the Z score was -0.12.
In the case of `C=CCC1(CC=C)CCCN1C(=O)[C@H]1CCC(=O)N(Cc2ccccn2)C1`, the “% Inhibition” value is reported as -14% and the Z score is reported as 1.59.
With `Cn1c(C(=O)NC[C@H]2CCCO2)cc(=O)c2ccccc21` the “% Inhibition” value was 15% and the Z score was -1.88.
With `COC(=O)[C@@H](NC(=O)c1coc(Cn2cnc3ccccc32)n1)c1ccccc1` the “% Inhibition” value was -14% and the Z score was 2.58.
For `Cn1c(=O)c2c(ncn2CC(=O)OCc2nnc(-c3ccccc3)o2)n(C)c1=O`, the “% Inhibition” value was -3% and the Z score was 0.51.
`Cc1nc2ncccc2cc1C(=O)N1CCN(C)C(=O)C1` was tested, and the “% Inhibition” value was -15% and the Z score was 2.34.
`CCc1nn(C)c(CC)c1Cc1nc(C2(c3cccc(OC)c3)CC2)no1` was tested, and the “% Inhibition” value was -13% and the Z score was 2.26.
With `CC(NC1CCCCNC1=O)c1nccn1C` (stereo not drawn) the “% Inhibition” value was 1% and the Z score was -0.15.
With `CCCCNC(=O)NCCCNc1ccncc1` the “% Inhibition” value was -6% and the Z score was 1.
`Cc1cc(-c2ccc(=O)[nH]n2)cc(S(=O)(=O)N2CCc3ccccc32)c1C` was tested, and the “% Inhibition” value was 5% and the Z score was -0.87.
For `CCn1cc(CN2CCCC23CCN(c2cccc(C)n2)CC3)c(C)n1`, the “% Inhibition” value was 11% and the Z score was -1.46.
With `NC(=O)C1CCC(NC(=O)N2CC(O)(c3ccc(Cl)cc3)C2)CC1` (stereo not drawn) the “% Inhibition” value was -9% and the Z score was 0.93.
`CC(=O)N1N=C(c2ccccc2NC(=O)c2ccc(Cl)cc2Cl)O[C@H]1c1ccc(N(C)C)cc1` was tested, and the “% Inhibition” value was 1% and the Z score was -0.15.
With `CO[C@@H](c1noc(-c2cnn(C(C)(C)C)c2)n1)c1ccccc1Cl` the “% Inhibition” value was -1% and the Z score was 0.19.
In the case of `CCO[C@H]1CN(C)C[C@@H]1n1cnc2c(F)cccc2c1=O`, the “% Inhibition” value is reported as -4% and the Z score is reported as 0.67.
For `O=S(=O)(c1ccc(F)cc1Cl)N1CCCO1`, the “% Inhibition” value was -6% and the Z score was 0.99.
In the case of `Cc1nc(NC(=O)COC2CCCC2)sc1C`, the “% Inhibition” value is reported as 15% and the Z score is reported as -1.93.
`O=S(=O)(N[C@@H]1CC=CCC1)c1ccc2c(c1)OCCO2` was tested, and the “% Inhibition” value was -10% and the Z score was 1.83.
With `Cn1ncc(CN2CCC(CS(C)(=O)=O)CC2)c1C(F)(F)F` the “% Inhibition” value was 5% and the Z score was -0.93.
`CC(C)CNC(=O)CCN(Cc1ccco1)C(=O)c1csc(Nc2ccccc2F)n1` was tested, and the “% Inhibition” value was 4% and the Z score was -0.78.
For `Cc1cc(=O)c(C(=O)NCCN2CCOCC2)c(CC2CCCC2)n1CCCN1CCCC1=O`, the “% Inhibition” value was 6% and the Z score was -1.15.
In the case of `OCC1(c2ccccc2)CN(Cc2c(F)cccc2F)C1`, the “% Inhibition” value is reported as -2% and the Z score is reported as 0.28.
In the case of `CCc1noc(CN(C)Cc2cnn(-c3ccccc3)n2)n1`, the “% Inhibition” value is reported as 4% and the Z score is reported as -0.54.
`CC(C)(C)n1ncnc1CNC(=O)C(=O)Nc1cccc(Oc2ccc(C#N)cc2)c1` was tested, and the “% Inhibition” value was 5% and the Z score was -0.97.
For `COc1ccccc1CN1CC[C@H](CO)[C@H](NC(=O)c2ccccc2)C1`, the “% Inhibition” value was 1% and the Z score was -0.18.
With `CCOC1CC2(CCN(C(=O)c3ccccc3S(C)(=O)=O)C2)C1` (stereo not drawn) the “% Inhibition” value was -44% and the Z score was 5.21.
`COc1cc(C(=O)O)cc(C(=O)NC2CCN(Cc3cccs3)CC2)c1` was tested, and the “% Inhibition” value was -11% and the Z score was 1.08.
In the case of `CCC1=Nc2ccccc2N=C(NC(=O)c2ccc(F)cc2)[C@H]1c1ccc(OC)c(OC)c1`, the “% Inhibition” value is reported as -11% and the Z score is reported as 1.75.
For `Cc1ccc(C(=O)C2CCN(C(=O)[C@H](C)NS(=O)(=O)c3ccc(Cl)cc3)CC2)c(C)c1`, the “% Inhibition” value was -8% and the Z score was 0.93.
For `CNC(=O)[C@@H]1C[C@H](NCc2ccccc2F)CN1CC(c1ccccc1)c1ccccc1`, the “% Inhibition” value was 9% and the Z score was -1.28.
In the case of `CC(=O)NCC1CCN(c2cc(N)nc(N3CCOCC3)n2)CC1`, the “% Inhibition” value is reported as -1% and the Z score is reported as 0.11.
For `Cc1ocnc1-c1noc(C2CCCC(C(N)=O)C2)n1` (stereo not drawn), the “% Inhibition” value was -5% and the Z score was 0.5.
With `COc1ccc2c(c1)CCc1c-2n[nH]c1-c1ccc(C(=O)NC2Cc3ccccc3C2)cc1` the “% Inhibition” value was 12% and the Z score was -1.59.
`N#Cc1c(F)cccc1NCC(=O)NCC1CC1` was tested, and the “% Inhibition” value was 3% and the Z score was -0.54.
In the case of `c1nc(NCc2cc3n(n2)CCN(C2CCCCC2)C3)c2cc[nH]c2n1`, the “% Inhibition” value is reported as -2% and the Z score is reported as 0.47.
`Cc1ncc(Cn2cc(CCO)cn2)s1` was tested, and the “% Inhibition” value was -7% and the Z score was 0.84.
For `CCNC(=O)N1CCC(NC(=O)N2CCCC(C)CC2)C1` (stereo not drawn), the “% Inhibition” value was -5% and the Z score was 0.67.
For `CC(C)C(=O)N1CC(N(Cc2ccccc2)C2CCOCC2)C1`, the “% Inhibition” value was 3% and the Z score was -0.51.
For `Cc1ccc([C@@H]2CC(c3cccc(C)c3)=NN2C(=O)CN2CCCC2)cc1`, the “% Inhibition” value was -2% and the Z score was 0.31.
`O=C(NCCOCCn1ccnc1)c1ccncc1F` was tested, and the “% Inhibition” value was 1% and the Z score was -0.21.
`CCC(C)C(=O)Nc1c(C(=O)OC)n(CC2CCCO2)c2ncc(NCc3ccccc3)cc12` (stereo not drawn) was tested, and the “% Inhibition” value was -9% and the Z score was 1.
In the case of `C[C@H](Nc1ncc(Cl)cn1)C1(S(C)(=O)=O)CC1`, the “% Inhibition” value is reported as -1% and the Z score is reported as 0.22.
With `CN1CC[C@H](N2CC3(CCC2=O)CCN(C(=O)c2ncccc2O)CC3)C1` the “% Inhibition” value was -7% and the Z score was 0.87.
`Cc1nsc(C(=O)N2CCCCC2)n1` was tested, and the “% Inhibition” value was -20% and the Z score was 3.07.
`CCOc1nnc(CN2CCN(C(=O)OC(C)(C)C)CC23CCCCC3)s1` was tested, and the “% Inhibition” value was -11% and the Z score was 1.65.
With `COCCC(=O)N1CCC(F)(C(=O)N2CCCC2)CC1` the “% Inhibition” value was -9% and the Z score was 1.13.
In the case of `Cc1oc(-c2ccsc2)nc1CN1CCCC[C@@H]1CCO`, the “% Inhibition” value is reported as 2% and the Z score is reported as -0.35.
For `CC(C)(C)c1nc(COc2ccc([C@H]3CCOC3)cc2)no1`, the “% Inhibition” value was -13% and the Z score was 1.44.
`Cc1c(Cl)cccc1S(=O)(=O)N1CC(Oc2cc(C)n(C3CC3)c(=O)c2)C1` was tested, and the “% Inhibition” value was -28% and the Z score was 3.15.
With `CCN1C[C@@H](CN(C)Cc2nc(-c3ccccn3)no2)CC1=O` the “% Inhibition” value was -9% and the Z score was 1.36.
In the case of `Cc1nn(-c2ccc(NC(=O)[C@@H]3CCC(=O)N3)cn2)c(C)c1Cl`, the “% Inhibition” value is reported as 40% and the Z score is reported as -4.47.
With `Cc1cnccc1NCCNc1ncnc(C)c1C` the “% Inhibition” value was 6% and the Z score was -0.88.
`Cc1cc(C)cc(N2CCN(C(=O)C[C@]3(c4ccccc4C)CC(=O)N(C4CC4)C3=O)CC2=O)c1` was tested, and the “% Inhibition” value was 1% and the Z score was -0.18.
With `O=C(Nc1cccc(NC(=O)C(F)(F)C(F)(F)OC(F)(F)F)n1)C(F)(F)C(F)(F)OC(F)(F)F` the “% Inhibition” value was -1% and the Z score was 0.16.
In the case of `COc1ccnc(N2CCN(c3cccc4[nH]c(=O)[nH]c34)CC2)n1`, the “% Inhibition” value is reported as 3% and the Z score is reported as -0.49.
`O=C(Nc1cc(F)cc(F)c1)C1CCN(c2cc(-c3cccc(F)c3)ncn2)CC1` was tested, and the “% Inhibition” value was -16% and the Z score was 2.59.
For `Cc1nc[nH]c1CN1CCN(Cc2ccoc2)[C@@H]2CS(=O)(=O)C[C@@H]21`, the “% Inhibition” value was -4% and the Z score was 0.64.
`CNC(=O)C1(N2CCC[C@H]2C(=O)N2CCCC2)COC1` was tested, and the “% Inhibition” value was -3% and the Z score was 0.41.
In the case of `Cc1nn(C)c2cc(NC(=O)N3CCC(C(C)(C)CN)CC3)ccc12`, the “% Inhibition” value is reported as -11% and the Z score is reported as 1.25.
`CNC1(c2nnnn2-c2cccc(C)c2)CCCC1` was tested, and the “% Inhibition” value was -9% and the Z score was 1.28.
In the case of `CCc1ccc([C@@H]2CN(C(=O)NCCc3ccnn3C)CCO2)cc1`, the “% Inhibition” value is reported as 2% and the Z score is reported as -0.22.
In the case of `Cn1c(Cn2cccc(C(F)(F)F)c2=O)nc2ccccc21`, the “% Inhibition” value is reported as -5% and the Z score is reported as 0.78.
For `CN(C)CC[C@H](NC(=O)c1ccc(NS(=O)(=O)C(F)(F)F)cc1)C(C)(C)C`, the “% Inhibition” value was -4% and the Z score was 0.37.
For `O=C(c1ccccc1OCC1CC1)N1CC[C@]2(CCOC2)C1`, the “% Inhibition” value was -4% and the Z score was 0.48.
For `Cc1cc(-c2nc(-c3ccc(F)cc3)no2)c(C)n1CC(=O)NCC(C)C`, the “% Inhibition” value was -10% and the Z score was 2.01.
With `CCOC(=O)c1ncn(CCOC)c1N` the “% Inhibition” value was 4% and the Z score was -0.49.
In the case of `O=C1NC[C@@H]2CCC[C@@H](CCOc3ccccc3C(=O)N3CCN(Cc4ccc5c(c4)OCO5)C[C@@H]13)O2`, the “% Inhibition” value is reported as -11% and the Z score is reported as 1.41.
In the case of `NC(=O)NCc1cn(C2CCN(C(=O)C3CCCCCC3)CC2)nn1`, the “% Inhibition” value is reported as -6% and the Z score is reported as 1.21.
For `Cc1nccn1CC(=O)N1CCC[C@@]2(CCC(=O)N(Cc3cccnc3)C2)C1`, the “% Inhibition” value was 3% and the Z score was -0.35.
With `CC(C)=CCC[C@H](C)N1CCC(=O)N(Cc2ccccn2)CC1` the “% Inhibition” value was 3% and the Z score was -0.43.
With `CN(C[C@H]1COc2ccccc2O1)C(=O)c1ccc(N(C)C)cc1` the “% Inhibition” value was -3% and the Z score was 0.37.
